The supplement of paper PMC8728848
This is one part of the list.

Key:
Assay in all cases: glycan array binding signal (z-score within array); higher = stronger binding
Details in all cases: glycan notation: IUPAC condensed, linker removed
[1] = biological target: Man(a1-2)Man(a1-3)[Man(a1-2)Man(a1-6)]Man(a1-6)[Man(a1-2)Man(a1-2)Man(a1-3)]Man
Summary of the method: (§1)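 The binding signal is a Z-score computed within each array. Data were drawn from 3228 arrays in the Consortium for Functional Glycomics database, restricted to those with a known protein sequence. Scores were averaged over arrays of the same protein sequence at different concentrations or buffers, and over linkers, and negative values can be taken as non-binding.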

[2] = biological target: Man(a1-2)Man(a1-3)[Man(a1-2)Man(a1-6)]Man(a1-6)[Man(a1-2)Man(a1-2)Man(a1-3)]Man(b1-4)GlcNAc(b1-4)GlcNAc
Summary of the method: as §1

[3] = biological target: Man(a1-2)Man(a1-3)[Man(a1-6)]Man(a1-6)[Man(a1-2)Man(a1-3)]Man(b1-4)GlcNAc(b1-4)GlcNAc
Summary of the method: as §1

[4] = biological target: Man(a1-2)Man(a1-6)[Man(a1-3)]Man(a1-6)[Man(a1-2)Man(a1-2)Man(a1-3)]Man
Summary of the method: as §1

[5] = biological target: Man(a1-2)Man(a1-6)[Man(a1-3)]Man(a1-6)[Man(a1-2)Man(a1-2)Man(a1-3)]Man(b1-4)GlcNAc(b1-4)GlcNAc
Summary of the method: as §1

[6] = biological target: Man(a1-3)[Man(a1-6)]Man
Summary of the method: as §1

[7] = biological target: Man(a1-3)[Man(a1-6)]Man(a1-6)[Man(a1-2)Man(a1-3)]Man(b1-4)GlcNAc(b1-4)GlcNAc
Summary of the method: as §1

[8] = biological target: Man(a1-3)[Man(a1-6)]Man(a1-6)[Man(a1-3)]Man
Summary of the method: as §1

[9] = biological target: Man(a1-3)[Man(a1-6)]Man(a1-6)[Man(a1-3)]Man(b1-4)GlcNAc(b1-4)GlcNAc
Summary of the method: as §1

[10] = biological target: Man(a1-3)[Man(a1-6)]Man(b1-4)GlcNAc(b1-4)GlcNAc
Summary of the method: as §1

[11] = biological target: Man(a1-3)[Man(a1-6)]Man(b1-4)GlcNAc(b1-4)[Fuc(a1-6)]GlcNAc
Summary of the method: as §1

[12] = biological target: Man(a1-6)Man
Summary of the method: as §1

[13] = biological target: Man(b1-4)GlcNAc
Summary of the method: as §1

[14] = biological target: MurNAc(b1-4)GlcNAc
Summary of the method: as §1

[15] = biological target: Neu5Ac(a2-3)Gal
Summary of the method: as §1

[16] = biological target: Neu5Ac(a2-3)Gal(b1-3)GalNAc
Summary of the method: as §1

[17] = biological target: Neu5Ac(a2-3)Gal(b1-3)GalNAc(b1-3)Gal(a1-4)Gal(b1-4)Glc
Summary of the method: as §1

[18] = biological target: Neu5Ac(a2-3)Gal(b1-3)GalNAc(b1-4)[Neu5Ac(a2-3)]Gal(b1-4)Glc
Summary of the method: as §1

[19] = biological target: Neu5Ac(a2-3)Gal(b1-3)GalNAc(b1-4)[Neu5Ac(a2-8)Neu5Ac(a2-3)]Gal(b1-4)Glc
Summary of the method: as §1

[20] = biological target: Neu5Ac(a2-3)Gal(b1-3)GalNAc6S
Summary of the method: as §1

[21] = biological target: Neu5Ac(a2-3)Gal(b1-3)GlcNAc
Summary of the method: as §1

[22] = biological target: Neu5Ac(a2-3)Gal(b1-3)GlcNAc(b1-2)Man
Summary of the method: as §1

[23] = biological target: Neu5Ac(a2-3)Gal(b1-3)GlcNAc(b1-2)Man(a1-3)[GlcNAc(b1-4)][Neu5Ac(a2-3)Gal(b1-3)GlcNAc(b1-2)Man(a1-6)]Man(b1-4)GlcNAc(b1-4)GlcNAc
Summary of the method: as §1

[24] = biological target: Neu5Ac(a2-3)Gal(b1-3)GlcNAc(b1-2)Man(a1-3)[Neu5Ac(a2-3)Gal(b1-3)GlcNAc(b1-2)Man(a1-6)]Man(b1-4)GlcNAc(b1-4)GlcNAc
Summary of the method: as §1

[25] = biological target: Neu5Ac(a2-3)Gal(b1-3)GlcNAc(b1-3)Gal(b1-3)GlcNAc
Summary of the method: as §1

[26] = biological target: Neu5Ac(a2-3)Gal(b1-3)GlcNAc(b1-3)Gal(b1-4)GlcNAc
Summary of the method: as §1

[27] = biological target: Neu5Ac(a2-3)Gal(b1-3)GlcNAc(b1-3)GalNAc
Summary of the method: as §1

[28] = biological target: Neu5Ac(a2-3)Gal(b1-3)GlcNAc(b1-4)Gal(b1-4)Glc
Summary of the method: as §1

[29] = biological target: Neu5Ac(a2-3)Gal(b1-3)GlcNAc(b1-6)GalNAc
Summary of the method: as §1

[30] = biological target: Neu5Ac(a2-3)Gal(b1-3)GlcNAc6S
Summary of the method: as §1

[31] = biological target: Neu5Ac(a2-3)Gal(b1-3)[Fuc(a1-4)]GlcNAc
Summary of the method: as §1

[32] = biological target: Neu5Ac(a2-3)Gal(b1-3)[Fuc(a1-4)]GlcNAc(b1-3)Gal(b1-3)[Fuc(a1-4)]GlcNAc
Summary of the method: as §1

[33] = biological target: Neu5Ac(a2-3)Gal(b1-3)[Fuc(a1-4)]GlcNAc(b1-3)Gal(b1-4)[Fuc(a1-3)]GlcNAc
Summary of the method: as §1

[34] = biological target: Neu5Ac(a2-3)Gal(b1-3)[GlcNAc(b1-6)]GalNAc
Summary of the method: as §1

[35] = biological target: Neu5Ac(a2-3)Gal(b1-3)[Neu5Ac(a2-6)]GalNAc
Summary of the method: as §1

[36] = biological target: Neu5Ac(a2-3)Gal(b1-3)[Neu5Ac(a2-6)]GlcNAc(b1-3)[Fuc(a1-3)[Gal(b1-4)]GlcNAc(b1-6)]Gal(b1-4)Glc
Summary of the method: as §1

[37] = biological target: Neu5Ac(a2-3)Gal(b1-3)]Neu5Ac(a2-3)Gal(b1-4)]GlcNAc
Summary of the method: as §1

[38] = biological target: Neu5Ac(a2-3)Gal(b1-4)Glc
Summary of the method: as §1

[39] = biological target: Neu5Ac(a2-3)Gal(b1-4)GlcNAc
Summary of the method: as §1

[40] = biological target: Neu5Ac(a2-3)Gal(b1-4)GlcNAc(b1-2)Man
Summary of the method: as §1

[41] = biological target: Neu5Ac(a2-3)Gal(b1-4)GlcNAc(b1-2)Man(a1-3)[GlcNAc(b1-4)][Neu5Ac(a2-3)Gal(b1-4)GlcNAc(b1-2)Man(a1-6)]Man(b1-4)GlcNAc(b1-4)GlcNAc
Summary of the method: as §1

[42] = biological target: Neu5Ac(a2-3)Gal(b1-4)GlcNAc(b1-2)Man(a1-3)[Neu5Ac(a2-3)Gal(b1-4)GlcNAc(b1-2)Man(a1-6)]Man(b1-4)GlcNAc(b1-4)GlcNAc
Summary of the method: as §1

[43] = biological target: Neu5Ac(a2-3)Gal(b1-4)GlcNAc(b1-2)Man(a1-3)[Neu5Ac(a2-3)Gal(b1-4)GlcNAc(b1-2)Man(a1-6)]Man(b1-4)GlcNAc(b1-4)[Fuc(a1-6)]GlcNAc
Summary of the method: as §1

[44] = biological target: Neu5Ac(a2-3)Gal(b1-4)GlcNAc(b1-2)Man(a1-3)[Neu5Ac(a2-6)Gal(b1-4)GlcNAc(b1-2)Man(a1-6)]Man(b1-4)GlcNAc(b1-4)GlcNAc
Summary of the method: as §1

[45] = biological target: Neu5Ac(a2-3)Gal(b1-4)GlcNAc(b1-2)[Neu5Ac(a2-3)Gal(b1-4)GlcNAc(b1-4)]Man(a1-3)[GlcNAc(b1-4)][Neu5Ac(a2-3)Gal(b1-4)GlcNAc(b1-2)[Neu5Ac(a2-3)Gal(b1-4)GlcNAc(b1-6)]Man(a1-6)]Man(b1-4)GlcNAc(b1-4)GlcNAc
Summary of the method: as §1

B1: Arath Fbox LD (Arabidopsis thaliana) (protein)
chain: EFSVWLEKASGKRCLMLSAMNLSIIWGDNPQYWQWIPIPESRFEKVAKLRDVCWFEIRGRTNTRVLSPRTRYSAYIVFKGVDKCYGFQNVAIEAAVGVVGQEPSRRLICFSEAIRRGRRNVVKPKQREDGWMEIELGEFFNDGGIMDNDEIEMSALETKQLNRKCGLIIQGIEIRPAKILAAASFLEQKLISEEDLNSAVDHHHHHH
glycan array binding signal (z-score) [1]: 0.01 | glycan array binding signal (z-score) [2]: -0.521 | glycan array binding signal (z-score) [3]: -0.337 | glycan array binding signal (z-score) [4]: -0.473 | glycan array binding signal (z-score) [5]: -0.266 | glycan array binding signal (z-score) [6]: -0.029 | glycan array binding signal (z-score) [7]: -0.43 | glycan array binding signal (z-score) [8]: -0.406 | glycan array binding signal (z-score) [9]: -0.49 | glycan array binding signal (z-score) [10]: -0.547 | glycan array binding signal (z-score) [11]: -0.562 | glycan array binding signal (z-score) [12]: 2.7 | glycan array binding signal (z-score) [13]: -0.511 | glycan array binding signal (z-score) [14]: -0.568 | glycan array binding signal (z-score) [15]: -0.404 | glycan array binding signal (z-score) [16]: -0.126 | glycan array binding signal (z-score) [17]: 0.141 | glycan array binding signal (z-score) [18]: -0.164 | glycan array binding signal (z-score) [19]: -0.316 | glycan array binding signal (z-score) [20]: 0.414 | glycan array binding signal (z-score) [21]: 0.153 | glycan array binding signal (z-score) [22]: 2.03 | glycan array binding signal (z-score) [23]: -0.462 | glycan array binding signal (z-score) [24]: 0.842 | glycan array binding signal (z-score) [25]: -0.423 | glycan array binding signal (z-score) [26]: -0.086 | glycan array binding signal (z-score) [27]: -0.567 | glycan array binding signal (z-score) [28]: -0.648 | glycan array binding signal (z-score) [29]: -0.64 | glycan array binding signal (z-score) [30]: -0.302 | glycan array binding signal (z-score) [31]: -0.55 | glycan array binding signal (z-score) [32]: -0.44 | glycan array binding signal (z-score) [33]: -0.507 | glycan array binding signal (z-score) [34]: -0.633 | glycan array binding signal (z-score) [35]: -0.264 | glycan array binding signal (z-score) [36]: -0.662 | glycan array binding signal (z-score) [37]: -0.103 | glycan array binding signal (z-score) [38]: -0.473 | glycan array binding signal (z-score) [39]: -0.468 | glycan array binding signal (z-score) [40]: 0.253 | glycan array binding signal (z-score) [41]: -0.488 | glycan array binding signal (z-score) [42]: -0.175 | glycan array binding signal (z-score) [43]: -0.554 | glycan array binding signal (z-score) [44]: -0.487 | glycan array binding signal (z-score) [45]: -0.279
